Experimental data: paper PMC4197402
Results are given in words; binding and its absence hold for the method and conditions named. For part of these data: In cells and extracts the contact can be indirect. Some entries that bind do so weakly or less than the wild type. For part of these data: Sequences can lack the tags named with a protein.

Tests used:
[1] = molecular target: VEGFR2, expressed in HEK293T cells (UniProt P35918); experiment: co-IP; HEK293T cells transfected with Vegfr2 and WT Nrp1 or Nrp1 D320K; lysate in 1% Triton X-100, 150 mM NaCl; anti-VEGFR2 antibody and protein A/G beads; washes up to 300 mM NaCl
[2] = molecular target: T1, NRP1/PlexinA4 complex (wild-type NRP1 co-expressed with PlexinA4) (rat | not stated) (UniProt Q9QWJ9+Q80UG2); experiment: AP-tagged ligand binding to transfected cells, liquid alkaline phosphatase activity assay, KD measurement; AP-SEMA3A on cells co-expressing NRP1 or NRP1 D320K with PlexinA4; ligand concentrations not told
[3] = molecular target: T2, NRP1^D320K/PlexinA4 complex (NRP1 D320K co-expressed with PlexinA4) (rat | not stated) (UniProt Q9QWJ9+Q80UG2); experiment: as above
[4] = molecular target: Neuropilin-1 D320K (rat cDNA in pCS2+), on COS-1 cells (rat) (UniProt Q9QWJ9); experiment: AP-tagged ligand binding to transfected cells, alkaline phosphatase histochemistry; COS-1 cells transfected with Nrp1 constructs; AP-tagged ligand from HEK293T medium, 2 nM, 75 min, HBHA pH 7; bound AP stained
[5] = molecular target: Neuropilin-1 E282K, on COS-1 cells (rat) (UniProt Q9QWJ9); experiment: as above
[6] = molecular target: Neuropilin-1 E319K, D320K (electronegative surface mutant), on COS-1 cells (rat) (UniProt Q9QWJ9); experiment: as above
[7] = molecular target: Neuropilin-1 E319K, on COS-1 cells (rat) (UniProt Q9QWJ9); experiment: as above
[8] = molecular target: Neuropilin-1 S346A, E348A (tuftsin binding site mutant), on COS-1 cells (rat) (UniProt Q9QWJ9); experiment: as above
[9] = molecular target: Neuropilin-1 S346A, E348A, T349A (tuftsin binding site mutant), on COS-1 cells (rat) (UniProt Q9QWJ9); experiment: as above
[10] = molecular target: Neuropilin-1, wild type (rat cDNA in pCS2+), on COS-1 cells (rat) (UniProt Q9QWJ9); experiment: as above
[11] = molecular target: Neuropilin-1 D320K, endogenous, Nrp1^VEGF− knock-in mice (mouse (endogenous in embryo sections and lung)) (UniProt P97333); experiment: AP-tagged ligand binding to tissue sections; 25 um cryosections of E12.5 mouse embryos, methanol-fixed; 2 nM AP-tagged ligand in PBS + 4 mM MgCl2, HEPES pH 7, 1.5 hr, room temperature; NBT/BCIP; read at the dorsal root entry zone
[12] = molecular target: Neuropilin-1, endogenous, control mice (mouse (endogenous in embryo sections and lung)) (UniProt P97333); experiment: as above
[13] = molecular target: T1, NRP1/PlexinA4 complex (wild-type NRP1 co-expressed with PlexinA4) (rat | not stated); experiment: AP-tagged ligand binding to transfected cells, liquid alkaline phosphatase activity assay; COS-1 cells transfected with Nrp1 constructs (with PlexinA4 for AP-SEMA3A); 2 nM AP-tagged ligand, 75 min, HBHA pH 7; cells lysed, AP activity read at 405 nm; normalised to protein content and anti-NRP1 staining
[14] = molecular target: T2, NRP1^D320K/PlexinA4 complex (NRP1 D320K co-expressed with PlexinA4) (rat | not stated); experiment: as above

Molecule: Neuropilin-1 D320K, expressed in HEK293T cells (from UniProt Q9QWJ9 22-922) (receptor)
- binding [1]: binds

Molecule: Neuropilin-1, wild type, expressed in HEK293T cells (from UniProt Q9QWJ9 22-922) (receptor)
- binding [1]: binds

B1: alkaline phosphatase-tagged SEMA3A (AP-SEMA3A) (ligand, UniProt Q14563 21-771)
chain: NYQNGKNNVPRLKLSYKEMLESNNVITFNGLANSSSYHTFLLDEERSRLYVGAKDHIFSFDLVNIKDFQKIVWPVSYTRRDECKWAGKDILKECANFIKVLKAYNQTHLYACGTGAFHPICTYIEIGHHPEDNIFKLENSHFENGRGKSPYDPKLLTASLLIDGELYSGTAADFMGRDFAIFRTLGHHHPIRTEQHDSRWLNDPKFISAHLISESDNPEDDKVYFFFRENAIDGEHSGKATHARIGQICKNDFGGHRSLVNKWTTFLKARLICSVPGPNGIDTHFDELQDVFLMNFKDPKNPVVYGVFTTSSNIFKGSAVCMYSMSDVRRVFLGPYAHRDGPNYQWVPYQGRVPYPRPGTCPSKTFGGFDSTKDLPDDVITFARSHPAMYNPVFPMNNRPIVIKTDVNYQFTQIVVDRVDAEDGQYDVMFIGTDVGTVLKVVSIPKETWYDLEEVLLEEMTVFREPTAISAMELSTKQQQLYIGSTAGVAQLPLHRCDIYGKACAECCLARDPYCAWDGSACSRYFPTAKRRTRRQDIRNGDPLTHCSDLHHDNHHGHSPEERIIYGVENSSTFLECSPKSQRALVYWQFQRRNEERKEEIRVDDHIIRTDQGLLLRSLQQKDSGNYLCHAVEHGFIQTLLKVTLEVIDTEHLEELLHKDDDGDGSKTKEMSNSMTPSQKVWYRDFMQLINHPNLNTMDEFCEQVWKRDRKQRRQRPGHTPGNSNKWKHLQENKKGRNRRTHEFERAPRSV
- binding [2]: binds
- binding [3]: binds
- binding [4]: binds
- binding [5]: binds
- binding [6]: binds
- binding [7]: binds
- binding [8]: no binding (tested: 2 nM ligand)
- binding [9]: no binding (tested: 2 nM ligand)
- binding [10]: binds
- binding [11]: binds
- binding [12]: binds
- binding [13]: binds
- binding [14]: binds
